Data reported in PubChem BioAssay AID652104 (National Center for Advancing Translational Sciences (NCATS), 2013).
Where “and” joins values, the source holds several entries; their conditions need not be identical. Equal values may be shown once. Among all 410,000 compounds or so, about 7,200 (1.8%) were called active. Inconclusive means that the source gave no clear call. Such entries were picked first, then a sample of the others. Calls come from the whole dose curve; as a rule, active = well fitted activation curve with a large enough effect; inconclusive = small, poorly fitted or top-dose-only effect, or another doubt; inactive = no such curve, though single readings can be large or run the other way. Where the call is inconclusive, the potency comes from a doubtful curve fit.

assay: qHTS of TDP-43 Inhibitors; conditions: TDP-43 expressing yeast growth rescue, BacTiter-Glo, 24 h; growth rescue (activation): at 46.1 µM (top of the series) unless noted; note: nearly all actives have a fitted effect of over 50% in size; for growth rescue (activation): % of control where 0% means no effect
How it was run: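 Yeast expressing TDP-43 (pregrown in raffinose, seeded at OD600=0.02 in galactose medium) exposed to compounds 24 hr at 30 deg C. Growth read by BacTiter-Glo luminescence; rescue of toxicity appears as increased signal.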
Potency is the fitted concentration of half-maximal effect; tags give direction and shape of the fitted curve.

Row | SMILES | Potency | growth rescue (activation)
1 | CSc1ccc(CN2CCC2(C)C(=O)Nc2cnc3ccccc3c2)cc1 (configuration not stated) | inactive | –
2 | COc1ccc(-c2csc(N(C)C(=O)c3ccco3)n2)cc1 | inconclusive: 35.5 µM [activator, single point] | –
3 | COc1ccc(CCNC(=O)c2ccc3c(c2)ncn3-c2ccc(C)cc2C)cc1OC | inconclusive: 11.2 µM [activator, single point] | –
4 | O=S1(=O)c2ccccc2N(Cc2cccc(Cl)c2)c2ccccc21 | inconclusive: 12.6 µM [activator, partial curve] | –
5 | CCCc1nc(N2CCOCC2)c(C#N)c2c1CCCC2 | inconclusive: 14.1 µM [activator, partial curve] | –
6 | C#CCOC(=O)Nc1ccc(OCC(F)(F)F)nc1 | inconclusive: 15.8 µM [activator, partial curve] | –
7 | CN1CCc2c(sc3nc(SCC(N)=O)n(-c4ccc(Cl)cc4)c(=O)c23)C1 | inactive | –
8 | Cc1ccc(-c2cc(C(=O)N/N=C/C(Br)=C/c3ccccc3)n[nH]2)o1 | inconclusive: 20 µM [activator, single point] | –
9 | Cc1ccc(NC(=O)CSc2nc3ccccc3nc2N2CCOCC2)cc1 | inconclusive: 22.4 µM [activator, partial curve, poor fit] and inconclusive: 35.5 µM [activator, partial curve] | –
10 | CCOC(=O)C(=CNc1cc(C)nn1-c1ccccc1)C(=O)OCC | inactive | –
11 | C/C(=N\NC(=O)Cc1ccccc1[N+](=O)[O-])c1cccnc1 | inactive | –
12 | S=C(c1ccc(-c2ccccc2Cl)o1)N1CCOCC1 | inconclusive: 14.1 µM [activator, single point] | –
13 | COC(=O)C(CC(C)C)NC(=O)CSc1nc(-c2ccccc2)c(C#N)c(=O)[nH]1 (configuration not stated) | inconclusive: 6.31 µM [activator, single point] | –
14 | O=C1NC(c2cccc3ccccc23)Nc2ccc(Cl)cc21 (configuration not stated) | active: 11.2 µM | –
15 | Clc1ccccc1CSc1nc2ccncc2[nH]1 | inactive | –
16 | CCCc1nc(SCc2cc(=O)c3ccc(C)c(C)c3[nH]2)n[nH]1 | inactive | –
17 | COc1ccc(S(=O)(=O)N2CCN(Cc3nc4ccc(C)cc4o3)CC2)cc1Cl | inconclusive: 20 µM [activator, partial curve] | –
18 | CCOC(=O)c1c(C)nc(C(Cl)(Cl)Cl)nc1N | active: 11.2 µM | –
19 | Cc1cc2ccccc2c(=O)n1CC(=O)NCC(=O)N1CCN(c2ccccc2F)CC1 | inconclusive: 11.2 µM [activator, partial curve] | –
20 | CCCCCN(C(=O)CCC(=O)OCC(=O)N(CC#N)c1ccccc1)c1c(N)n(CCCC)c(=O)[nH]c1=O | inconclusive: 2.51 µM [activator, full curve, poor fit] | –
21 | COc1ccc(C(=O)OCC(=O)c2ccc3c(c2)NC(=O)CO3)cc1OC | inconclusive: 2.24 µM [activator, full curve, poor fit] | –
22 | COc1ccc(NC(=O)Cn2cc(C(=O)c3ccccc3OC)c(=O)c3ccc(C)nc32)cc1OC | inactive | –
23 | Cc1cc(NC(=O)CCCS(=O)(=O)c2nc(-c3cccs3)cc(C(F)(F)F)n2)no1 | inconclusive: 35.5 µM [activator, single point] | –

Row | SMILES | Potency | growth rescue (activation)
24 | Fc1ccc(-c2csc(-c3cccnc3)n2)cc1F | inconclusive: 35.5 µM [activator, partial curve, poor fit] | –
25 | COC(=O)c1nn(-c2ccccc2)c(=O)cc1Oc1ccccc1 | inconclusive: 14.1 µM [activator, single point] | –
26 | COc1ccc(/C=C/C(=O)NC(=S)NNC(=O)Cc2cccs2)cc1 | inconclusive: 10 µM [activator, partial curve] | –
27 | Cc1nn(C(=O)c2c(F)cccc2F)c(C)c1S(=O)(=O)N1CCCCCC1 | inconclusive: 0.316 µM [activator, full curve, poor fit] | –
28 | C[C@@H]1CN([C@H](C)CO)C(=O)CCCn2nncc2CO[C@H]1CN(C)C(=O)c1ccc2ccn(C)c2c1 | – | inconclusive: 21.6% [activator]
29 | O=C1NC(Cc2ccccc2)c2nc3cc(Cl)ccc3c(=O)n2-c2ncccc21 (configuration not stated) | inconclusive: 17.8 µM [activator, partial curve] | –
30 | CC(NC(=O)C1CC=CCC1C(=O)O)C1CC2CCC1C2 (configuration not stated) | inactive | –
31 | CCN(C(=O)COC(=O)c1c2c(nc3ccccc13)/C(=C/c1ccccc1)CC(C)C2)C1CCS(=O)(=O)C1 (configuration not stated) | active: 14.1 µM | –
32 | O=C1CC2(CCN(C(=O)c3ccccc3[N+](=O)[O-])CC2)Oc2ccccc21 | inconclusive: 12.6 µM [activator, partial curve] | –
33 | CSc1ncc(CN2CCCC(C(=O)c3ccc(C(C)(C)C)cc3)C2)cn1 (configuration not stated) | inactive | –
34 | Cc1ccc(C)c(NC(=O)/C(C#N)=C/c2ccc(C(C)C)cc2)c1 | inactive | –
35 | CN(C)CCN(C(=O)c1cccs1)c1nc2cc3c(cc2s1)OCCO3 | inactive | –
36 | Cc1cccc(C)c1-n1nnnc1C1(C)CCC(=O)N1CCOc1ccccc1 (configuration not stated) | inconclusive: 10 µM [activator, partial curve] | –
37 | CCOC(=O)N1CCN(CC(=O)Nc2c(C(=O)OC)[nH]c3ccc(Cl)cc23)CC1 | inconclusive: 4.47 µM [activator, full curve, poor fit] | –
38 | C=CCn1c(SCc2ccccc2F)nc2cc(C(=O)O)ccc2c1=O | inconclusive: 12.6 µM [activator, partial curve] | –
39 | COc1cc(SC)ccc1C(=O)NCCc1c[nH]c2ccccc12 | inconclusive: 11.2 µM [activator, partial curve] | –
40 | COC(=O)c1cc(Sc2cccc(Cl)c2Cl)ccn1 | inconclusive: 12.6 µM [activator, single point] | –
41 | CC(C)Cc1nc(N2CCN(C(=O)c3ccco3)CC2)c(C#N)c2c1CCC2 | inconclusive: 35.5 µM [activator, single point] | –
42 | CSc1nc2ccccc2n1Cc1c(Cl)cccc1Cl | inconclusive: 22.4 µM [activator, single point] | –
43 | Cc1nc(NCc2ccco2)c2c3c(sc2n1)CCC3 | inconclusive: 14.1 µM [activator, partial curve] | –
44 | Cc1ccc(-c2nn(C)c(=O)c3ccccc23)cc1S(=O)(=O)N1CCCC1 | inconclusive: 35.5 µM [activator, single point] | –
45 | Cc1ccc(C)c(NC(=O)CN(C)C(=O)CSCc2c(C)noc2C)c1 | inactive | –
46 | COc1ccc(C(=O)NCCCN2CCOCC2)cc1 | inactive | –

Row | SMILES | Potency | growth rescue (activation)
47 | COc1ccccc1/C=C/c1nc(C#N)c(NCC(C)C)o1 | inconclusive: 35.5 µM [activator, single point] | –
48 | COc1ccc(C2=NO[C@@H]3C(=O)N(c4cccc(C)c4C)C(=O)[C@H]23)cc1OC | inconclusive: 2.82 µM [activator, full curve] | –
49 | CCC(C)(C)n1nnnc1C(c1cc2cc(C)cc(C)c2[nH]c1=O)N1CCN(Cc2ccc3c(c2)OCO3)CC1 (configuration not stated) | inactive | –
50 | O=C1CC(NS(=O)(=O)c2ccccc2F)CN1c1ccc2c(c1)OCCO2 (configuration not stated) | inconclusive: 10 µM [activator, partial curve] | –
51 | COC(=O)C(C)Sc1snnc1-c1ccccc1 (configuration not stated) | inconclusive: 12.6 µM [activator, partial curve] | –
52 | COc1ccc(S(=O)(=O)N2CCN(Cc3cccc([N+](=O)[O-])c3)CC2)cc1 | inconclusive: 11.2 µM [activator, partial curve] | –
53 | CCN1CCSc2ccc(C(=O)NCc3ccccc3C)cc21 | active: 35.5 µM | –
54 | COc1ccc([C@H]2CN(c3ccccc3)C(=O)[C@@H]2CC(=O)Nc2ccccc2)cc1 | inconclusive: 11.2 µM [activator, partial curve, poor fit] | –
55 | Cc1nc(-c2ccc(S(=O)(=O)Nc3ccc(Cl)c(C(F)(F)F)c3)cc2)co1 | inconclusive: 14.1 µM [activator, partial curve] | –
56 | COc1ccc(CNC(=O)c2sc3nc4n(c(=O)c3c2C)CCCCC4)cc1 | inconclusive: 6.31 µM [activator, single point] | –
57 | Clc1cccc(C2=NC(c3cccs3)=Nc3ccc(Br)cc3N2)c1 | inactive | –
58 | CCc1ccc(NC(=O)CN2C(=O)c3ccccc3Sc3ccc(C(=O)N4CCCC4)cc32)cc1 | inconclusive: 0.316 µM [activator, full curve, poor fit] | –
59 | O=C(Nc1cccc(N2CCCC2)c1)c1cccs1 | inactive | –
60 | O=C(/C=C/c1ccco1)Nc1cccc2cccnc12 | inconclusive: 11.2 µM [activator, single point] | –
61 | Cc1cn2c(=O)cc(COC(=O)c3ccc(NC(=O)c4ccccc4C)cc3)nc2s1 | inactive | –
62 | Nc1nonc1-n1nnc(C(=O)N/N=C/c2ccccc2Cl)c1COc1ccc(F)cc1 | inactive | –
63 | COc1cc(CNn2cn[nH]c2=S)cc(Br)c1OCc1ccccc1F | inconclusive: 35.5 µM [activator, single point] | –
64 | CC(C)CCn1c(=O)c2c(nc3n2CCCN3Cc2ccccc2)n(C)c1=O | inconclusive: 12.6 µM [activator, single point] | –
65 | CCOc1ccc(-n2c(SCc3nc(-c4ccc(C)cc4)no3)nnc2-c2ccncc2)cc1 | inconclusive: 31.6 µM [activator, single point] | –
66 | O=C(NCc1cccc(C(F)(F)F)c1)c1ccc2nc([C@H]3C[C@H](O)[C@@H](CO)O3)[nH]c2c1 | inconclusive: 1.12 µM [activator, full curve, poor fit] | –
67 | CC(C)c1cc(C(=O)OCC(=O)NC2CC2)c(O)c(C(C)C)c1 | inconclusive: 22.4 µM [activator, partial curve, poor fit] | –
